Measured values: PubChem BioAssay AID504332 (National Center for Advancing Translational Sciences (NCATS), 2011)
Out of some 350,000 compounds screened, about 31,000 (8.9%) were called active. Inconclusive means that the source gave no clear call. Such entries were picked first, then a sample of the others. The call rests on the fitted dose curve; in most records, active means well fitted inhibition curve with a large enough effect; inconclusive means small, poorly fitted or top-dose-only effect; inactive means no such curve, though single readings can be large or run the other way. Potencies beside an inconclusive call are fits to weak or partial responses and may not hold up.

target: Histone-lysine N-methyltransferase EHMT2 (Homo sapiens) (UniProt Q96KQ7); assay: qHTS Assay for Inhibitors of Histone Lysine Methyltransferase G9a; conditions: G9a H3K9 monomethylation, AlphaScreen, 2 h; activity, negative = inhibition: at 59 µM (top of the series) unless noted; further: nearly all actives have a fitted effect of over 75% in size
Chain of UniProt Q96KQ7 (Q96KQ7 whole entry, looked up): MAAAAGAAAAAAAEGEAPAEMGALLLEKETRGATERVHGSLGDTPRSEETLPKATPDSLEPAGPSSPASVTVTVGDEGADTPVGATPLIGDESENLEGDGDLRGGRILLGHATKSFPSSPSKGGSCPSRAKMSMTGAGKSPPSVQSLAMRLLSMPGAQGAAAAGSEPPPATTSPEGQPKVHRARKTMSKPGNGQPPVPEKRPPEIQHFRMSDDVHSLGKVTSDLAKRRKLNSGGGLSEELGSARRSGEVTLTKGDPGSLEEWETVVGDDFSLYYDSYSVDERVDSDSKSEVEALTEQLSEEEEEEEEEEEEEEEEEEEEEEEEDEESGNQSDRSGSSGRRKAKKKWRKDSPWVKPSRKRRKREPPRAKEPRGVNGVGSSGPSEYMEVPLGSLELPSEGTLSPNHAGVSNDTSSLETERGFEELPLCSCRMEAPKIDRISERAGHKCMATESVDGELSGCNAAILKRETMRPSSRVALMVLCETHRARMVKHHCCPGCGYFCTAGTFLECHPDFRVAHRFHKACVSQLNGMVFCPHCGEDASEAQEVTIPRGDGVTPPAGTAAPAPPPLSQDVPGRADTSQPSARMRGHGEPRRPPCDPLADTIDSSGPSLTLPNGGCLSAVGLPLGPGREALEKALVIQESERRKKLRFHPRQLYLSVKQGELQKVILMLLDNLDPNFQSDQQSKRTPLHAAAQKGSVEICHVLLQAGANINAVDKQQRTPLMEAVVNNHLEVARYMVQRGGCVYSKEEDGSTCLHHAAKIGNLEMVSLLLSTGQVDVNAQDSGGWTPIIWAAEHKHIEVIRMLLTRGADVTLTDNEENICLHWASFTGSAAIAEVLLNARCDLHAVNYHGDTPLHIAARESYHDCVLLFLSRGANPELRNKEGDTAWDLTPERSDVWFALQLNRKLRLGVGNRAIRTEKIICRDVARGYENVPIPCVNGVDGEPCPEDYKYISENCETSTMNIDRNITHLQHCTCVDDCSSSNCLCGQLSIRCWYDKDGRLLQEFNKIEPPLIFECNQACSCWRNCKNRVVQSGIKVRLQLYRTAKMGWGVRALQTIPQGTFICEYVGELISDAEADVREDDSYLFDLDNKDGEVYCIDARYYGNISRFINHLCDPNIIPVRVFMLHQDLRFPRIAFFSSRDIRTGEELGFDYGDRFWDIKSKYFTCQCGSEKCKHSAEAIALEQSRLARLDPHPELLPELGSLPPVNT
Procedure, shortened: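 Readings reflect AlphaScreen signal from monomethyl-H3K9 antibody detection. HMT at 20 nM; substrate b-H3K9 500 nM; cofactor SAM 20 uM; 2 h RT reaction; compounds tested as titrations in qHTS with 15 min preincubation.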
On the % scale 0 is the no-effect control and ±100 the full control effect; potency means the concentration at half of the fitted maximal effect; tags describe the fitted curve by direction and shape.

Structure (SMILES) | activity, negative = inhibition | Potency
CCC(C)NS(=O)(=O)c1ccc(NS(=O)(=O)c2ccc(F)cc2)cc1 (stereo not drawn) | inactive: 1.73% [at 12.7 µM] | 
[O-][N+](=Nc1ccccc1)c1ccccc1 |  | inactive
CC(=O)N(c1ccc2oc(=O)sc2c1)S(=O)(=O)c1cccc2cccnc12 |  | active: 22.4 µM
O=C(Cc1ccsc1)N1CCc2c([nH]c3ccccc23)C1c1ccccn1 (stereo not drawn) |  | active: 50.1 µM
CC1=NN(/C(=N\c2nnc(C)s2)Nc2ccccc2)[C@H](c2cccc3ccccc23)S1 |  | inconclusive: 12.6 µM [inhibitor, partial curve, poor fit]
O=C(NCCCSc1ccccc1)c1cc(Cl)ccc1O |  | active: 35.5 µM
Cc1ccc(C)c(NC(=S)N2CCC(NC(=O)c3ccco3)CC2)c1 |  | inactive
CCN(CC)CCNC(=O)c1ccc(NC(=O)c2ccc(C(=O)c3ccccc3)cc2)cc1 |  | active: 7.08 µM
CCCCc1c(C)nc2ccccc2c1SCCC(=O)O |  | active: 50.1 µM
CCOC(=O)C(=O)N1CCC(C(=O)OCC)CC1 |  | inconclusive: 50.1 µM [inhibitor, partial curve, poor fit]
COc1ccc(N2CCN(S(=O)(=O)c3cccs3)CC2)cc1 |  | active: 25.1 µM
O=C(NC(=S)Nc1cc(S(=O)(=O)N2CCOCC2)ccc1O)c1ccco1 |  | active: 10 µM
Cc1cccc(C(=O)NNC(=O)Nc2ccccc2)c1 |  | inactive
CN(C)S(=O)(=O)c1ccc(C(=O)NCc2ccc3[nH]c4c(c3c2)CCCC4)cc1 |  | active: 44.7 µM
Cc1cc(C)cc(NS(=O)(=O)c2ccc3oc(=O)ccc3c2)c1 |  | inactive
Cc1c(C(=O)OCC[N+]2(C)CCCCC2)oc2ccccc12 |  | active: 28.2 µM
Cc1nc(N2CCOCC2)[nH]c(=O)c1C(O)C(Cl)(Cl)Cl (stereo not drawn) |  | inconclusive: 79.4 µM [inhibitor, partial curve, poor fit]
CCOC(=O)c1c(C)[nH]c(C)c1C(=O)CN1C(=O)NC(CC(C)C)C1=O (stereo not drawn) | inconclusive: -62.6% [inhibitor] | 
CCN1CCN(c2cc(C)c3cc(NC(=O)c4cnccn4)ccc3n2)CC1 |  | inconclusive: 89.1 µM [inhibitor, single point]
CC(C)Sc1ncnc2c1cnn2-c1ccccc1 |  | inactive
C[C@@H]1CN(C2CCN(Cc3nc(CC4CC4)no3)CC2)C[C@H](C)O1 |  | inconclusive: 50.1 µM [inhibitor, partial curve, poor fit]
O=C(O)CC1(CC(=O)Nc2cc3ccccc3cn2)CCCCC1 |  | active: 89.1 µM
CCOc1ccc(Nc2nc(N)nc(CSC(=S)N3CCN(c4ccccc4)CC3)n2)cc1 | inconclusive: -58% [inhibitor] | 
